# According to the supplement of paper PMC8728848:
# The list shows a part of the results.
# B1: DBA (Dolichos biflorus) (protein)
# chain: ANIQSFSFKNFNSPSFILQGDATVSSGKLQLTKVKENGFPLRFPSGRAFYSSPIQIYDKFTGAVASWATSFTVKISAPSKASFADGIAFALVPVGSEPRRNGGYLGVFDSDVYNNSAQTVAVEFDTLSNSGWDPSMKHIGIDVNSIKSIATVSWDLANGENAEILITYNAATSLLVVSLVHPSRRTSYILSERVDITNELPEYVGVGFSATTGLSEGYIETHDVLSWSFASRLPDDSTAEPLDLARYLVRNVL
# Assays:
# Experiment in all cases: glycan array binding signal (z-score within array); higher = stronger binding
# Settings in all cases: glycan notation: IUPAC condensed, linker removed
# [1] = target: GalNAc3S(b1-4)[Fuc(a1-3)]GlcNAc
# Summary of the method: (§1)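 The binding signal is a Z-score computed within each array and averaged over linkers. Arrays of the same protein sequence at different concentrations or buffers were also averaged together. Data originate from 3228 arrays in the Consortium for Functional Glycomics database, kept only where the protein sequence was available.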
# [2] = target: GalNAc4S6S(b1-4)GlcNAc
# Summary of the method: as §1
# [3] = target: GalNAc6S(b1-4)GlcNAc
# Summary of the method: as §1
# [4] = target: Glc(a1-4)Glc
# Summary of the method: as §1
# [5] = target: Glc(a1-4)Glc(a1-4)Glc(a1-4)Glc
# Summary of the method: as §1
# [6] = target: Glc(a1-6)Glc(a1-6)Glc
# Summary of the method: as §1
# [7] = target: Glc(a1-6)Glc(a1-6)Glc(a1-6)Glc
# Summary of the method: as §1
# [8] = target: Glc(b1-4)Glc
# Summary of the method: as §1
# [9] = target: Glc(b1-6)Glc
# Summary of the method: as §1
# [10] = target: GlcA(b1-3)Gal
# Summary of the method: as §1
# [11] = target: GlcA(b1-3)GlcNAc
# Summary of the method: as §1
# [12] = target: GlcA(b1-6)Gal
# Summary of the method: as §1
# [13] = target: GlcA3S(b1-3)Gal(b1-4)GlcNAc(b1-2)Man
# Summary of the method: as §1
# [14] = target: GlcA3S(b1-3)Gal(b1-4)GlcNAc(b1-3)Gal(b1-4)Glc
# Summary of the method: as §1
# [15] = target: GlcNAc(a1-3)Gal(b1-4)GlcNAc
# Summary of the method: as §1
# [16] = target: GlcNAc(a1-4)Gal(b1-3)GlcNAc
# Summary of the method: as §1
# [17] = target: GlcNAc(a1-4)Gal(b1-4)GalNAc
# Summary of the method: as §1
# [18] = target: GlcNAc(a1-4)Gal(b1-4)GlcNAc
# Summary of the method: as §1
# [19] = target: GlcNAc(a1-4)Gal(b1-4)GlcNAc(b1-3)Gal(b1-4)Glc
# Summary of the method: as §1
# [20] = target: GlcNAc(a1-4)Gal(b1-4)GlcNAc(b1-3)Gal(b1-4)GlcNAc
# Summary of the method: as §1
# [21] = target: GlcNAc(a1-4)Gal(b1-4)GlcNAc(b1-3)Gal(b1-4)GlcNAc(b1-3)Gal(b1-4)GlcNAc
# Summary of the method: as §1
# [22] = target: GlcNAc(a1-4)Gal(b1-4)GlcNAc(b1-3)Gal(b1-4)[Fuc(a1-3)]GlcNAc(b1-3)Gal(b1-4)[Fuc(a1-3)]GlcNAc
# Summary of the method: as §1
# [23] = target: GlcNAc(a1-6)Gal(b1-4)GlcNAc
# Summary of the method: as §1
# [24] = target: GlcNAc(b1-2)Gal(b1-3)GalNAc
# Summary of the method: as §1
# [25] = target: GlcNAc(b1-2)Man(a1-3)[GlcNAc(b1-2)Man(a1-6)]Man(b1-4)GlcNAc(b1-4)GlcNAc
# Summary of the method: as §1
# [26] = target: GlcNAc(b1-2)Man(a1-3)[GlcNAc(b1-2)Man(a1-6)]Man(b1-4)GlcNAc(b1-4)[Fuc(a1-6)]GlcNAc
# Summary of the method: as §1
# [27] = target: GlcNAc(b1-2)Man(a1-3)[GlcNAc(b1-4)][GlcNAc(b1-2)Man(a1-6)]Man(b1-4)GlcNAc(b1-4)GlcNAc
# Summary of the method: as §1
# [28] = target: GlcNAc(b1-2)Man(a1-3)[GlcNAc(b1-4)][GlcNAc(b1-2)Man(a1-6)]Man(b1-4)GlcNAc(b1-4)[Fuc(a1-6)]GlcNAc
# Summary of the method: as §1
# [29] = target: GlcNAc(b1-2)[GlcNAc(b1-4)]Man(a1-3)[GlcNAc(b1-2)Man(a1-6)]Man(b1-4)GlcNAc(b1-4)GlcNAc
# Summary of the method: as §1
# [30] = target: GlcNAc(b1-2)[GlcNAc(b1-4)]Man(a1-3)[GlcNAc(b1-4)][GlcNAc(b1-2)Man(a1-6)]Man(b1-4)GlcNAc(b1-4)GlcNAc
# Summary of the method: as §1
# [31] = target: GlcNAc(b1-2)[GlcNAc(b1-4)]Man(a1-3)[GlcNAc(b1-4)][GlcNAc(b1-2)[GlcNAc(b1-6)]Man(a1-6)]Man(b1-4)GlcNAc(b1-4)GlcNAc
# Summary of the method: as §1
# [32] = target: GlcNAc(b1-2)[GlcNAc(b1-4)]Man(a1-3)[GlcNAc(b1-4)][GlcNAc(b1-2)[GlcNAc(b1-6)]Man(a1-6)]Man(b1-4)GlcNAc(b1-4)[Fuc(a1-6)]GlcNAc
# Summary of the method: as §1
# [33] = target: GlcNAc(b1-2)[GlcNAc(b1-6)]Man(a1-6)[GlcNAc(b1-2)Man(a1-3)]Man(b1-4)GlcNAc(b1-4)GlcNAc
# Summary of the method: as §1
# [34] = target: GlcNAc(b1-2)[GlcNAc(b1-6)]Man(a1-6)[GlcNAc(b1-2)Man(a1-3)]Man(b1-4)GlcNAc(b1-4)[Fuc(a1-6)]GlcNAc
# Summary of the method: as §1
# [35] = target: GlcNAc(b1-2)[GlcNAc(b1-6)]Man(a1-6)[GlcNAc(b1-4)][GlcNAc(b1-2)Man(a1-3)]Man(b1-4)GlcNAc(b1-4)GlcNAc
# Summary of the method: as §1
# [36] = target: GlcNAc(b1-3)Fuc
# Summary of the method: as §1
# [37] = target: GlcNAc(b1-3)Gal
# Summary of the method: as §1
# [38] = target: GlcNAc(b1-3)Gal(b1-3)GalNAc
# Summary of the method: as §1
# [39] = target: GlcNAc(b1-3)Gal(b1-4)Glc
# Summary of the method: as §1
# [40] = target: GlcNAc(b1-3)Gal(b1-4)GlcNAc
# Summary of the method: as §1
# [41] = target: GlcNAc(b1-3)Gal(b1-4)GlcNAc(b1-2)Man(a1-3)[GlcNAc(b1-3)Gal(b1-4)GlcNAc(b1-2)Man(a1-6)]Man(b1-4)GlcNAc(b1-4)GlcNAc
# Summary of the method: as §1
# [42] = target: GlcNAc(b1-3)Gal(b1-4)GlcNAc(b1-2)Man(a1-3)[GlcNAc(b1-3)Gal(b1-4)GlcNAc(b1-2)Man(a1-6)]Man(b1-4)GlcNAc(b1-4)[Fuc(a1-6)]GlcNAc
# Summary of the method: as §1
# [43] = target: GlcNAc(b1-3)Gal(b1-4)GlcNAc(b1-2)[GlcNAc(b1-3)Gal(b1-4)GlcNAc(b1-6)]Man(a1-6)[GlcNAc(b1-3)Gal(b1-4)GlcNAc(b1-2)Man(a1-3)]Man(b1-4)GlcNAc(b1-4)GlcNAc
# Summary of the method: as §1
# [44] = target: GlcNAc(b1-3)Gal(b1-4)GlcNAc(b1-3)Gal(b1-4)GlcNAc
# Summary of the method: as §1
# [45] = target: GlcNAc(b1-3)Gal(b1-4)GlcNAc(b1-3)Gal(b1-4)GlcNAc(b1-2)Man(a1-3)[GlcNAc(b1-3)Gal(b1-4)GlcNAc(b1-3)Gal(b1-4)GlcNAc(b1-2)Man(a1-6)]Man(b1-4)GlcNAc(b1-4)GlcNAc
# Summary of the method: as §1
binder,measurement,setting,value
B1,glycan array binding signal (z-score),[1],-0.127
same,glycan array binding signal (z-score),[2],-0.209
same,glycan array binding signal (z-score),[3],-0.131
same,glycan array binding signal (z-score),[4],-0.128
same,glycan array binding signal (z-score),[5],-0.1
same,glycan array binding signal (z-score),[6],-0.113
same,glycan array binding signal (z-score),[7],-0.084
same,glycan array binding signal (z-score),[8],-0.122
same,glycan array binding signal (z-score),[9],-0.103
same,glycan array binding signal (z-score),[10],-0.137
same,glycan array binding signal (z-score),[11],-0.12
same,glycan array binding signal (z-score),[12],-0.1
same,glycan array binding signal (z-score),[13],-0.159
same,glycan array binding signal (z-score),[14],-0.095
same,glycan array binding signal (z-score),[15],-0.15
same,glycan array binding signal (z-score),[16],-0.125
same,glycan array binding signal (z-score),[17],-0.085
same,glycan array binding signal (z-score),[18],-0.152
same,glycan array binding signal (z-score),[19],-0.103
same,glycan array binding signal (z-score),[20],-0.137
same,glycan array binding signal (z-score),[21],-0.14
same,glycan array binding signal (z-score),[22],-0.007
same,glycan array binding signal (z-score),[23],-0.13
same,glycan array binding signal (z-score),[24],-0.116
same,glycan array binding signal (z-score),[25],-0.127
same,glycan array binding signal (z-score),[26],-0.074
same,glycan array binding signal (z-score),[27],-0.121
same,glycan array binding signal (z-score),[28],-0.118
same,glycan array binding signal (z-score),[29],-0.097
same,glycan array binding signal (z-score),[30],-0.133
same,glycan array binding signal (z-score),[31],-0.101
same,glycan array binding signal (z-score),[32],-0.176
same,glycan array binding signal (z-score),[33],-0.109
same,glycan array binding signal (z-score),[34],-0.067
same,glycan array binding signal (z-score),[35],-0.194
same,glycan array binding signal (z-score),[36],-0.045
same,glycan array binding signal (z-score),[37],-0.139
same,glycan array binding signal (z-score),[38],-0.112
same,glycan array binding signal (z-score),[39],-0.158
same,glycan array binding signal (z-score),[40],-0.135
same,glycan array binding signal (z-score),[41],-0.038
same,glycan array binding signal (z-score),[42],0.045
same,glycan array binding signal (z-score),[43],-0.079
same,glycan array binding signal (z-score),[44],-0.128
same,glycan array binding signal (z-score),[45],0.117
